Screen size: about 150,000 compounds; about 540 (0.36%) showed an effect of 50% or more. The list shows a part of the results.

The experiment concerns Plasmodium falciparum. Description: Primary screen in NF54 nanoGlo assay, in single point, at 2uM, 72h; a lower Z score goes with more inhibition. As to conditions: timepoint 72 hour. In kind it is functional, Erythrocyte.
By % Inhibition is commonly meant the drop in the measured response relative to a control, in per cent. Consider `COc1ccc(CN2C(=O)N[C@@H](CCC(=O)Nc3nc(C)cs3)C2=O)cc1`, for which the “% Inhibition” value stood at 2% and the Z score was -0.27.

With `CN(C)Cc1ccnc(NCc2csnn2)c1`, the “% Inhibition” value is given as -5% and the Z score was determined as 0.45.

As for `c1csc(Cn2ncc3[nH]c(C4CCCC4)nc32)c1`, the “% Inhibition” value came to 9% and the Z score was -1.67.

In the case of `CNC(=O)COc1cccc(NC(=O)c2cccc3c4c([nH]c23)CCCCC4)c1`, the “% Inhibition” value is listed as -8% and the Z score is recorded as 0.96.

Consider `CCOC(=O)c1cn([C@H]2CC(=O)N(c3ccccc3)C2=O)nn1`, for which the “% Inhibition” value is 35% and the Z score was -0.88.

Turning to `CN1CCN2C(=O)c3ccccc3OCC[C@@H]3CC[C@@H](NC(=O)C4CCOCC4)[C@@H](CNC(=O)[C@@H]2C1)O3`, the “% Inhibition” value is reported as 5% and the Z score is -0.78.

With `CC[C@H](NC(=O)N1CC(NC(C)=O)C1)c1nccs1`, the “% Inhibition” value is recorded as -11% and the Z score was 1.26.

On to `Cc1cc(N2CCC(c3nnc(CN4CCN(C)CC4)n3C)CC2)ncn1`, for which the “% Inhibition” value is -9% and the Z score is given as 1.13.

With `COc1c(C)cc(-c2cccc(C(=O)N(C)Cc3cc(C)[nH]n3)c2)cc1C`, the “% Inhibition” value is on record as -8% and the Z score is given as 0.77.

Consider `CC(C)c1nnsc1CNC(=O)Nc1ccnn1C1CCCC1`, for which the “% Inhibition” value is given as -11% and the Z score was determined as 1.52.

As for `CCCC(=O)N1CCCN(c2ccc(=O)n(-c3ccc(C)cc3)n2)CC1`, the “% Inhibition” value was 30% and the Z score was -3.46.

As for `Nc1c2c(-c3ccc(Cl)cc3)nc(NCc3ccccc3)nc2nn1-c1cccc(F)c1`, the “% Inhibition” value is -18% and the Z score is listed as 3.56.

With `COc1cc(CN2CCOC[C@@H](O)C2)ccc1OCc1ccccc1`, the “% Inhibition” value was -15% and the Z score is recorded as 1.39.

For `O=C(NC1CCN(Cc2ccc(F)c(F)c2)CC1)C(=O)c1ccc2c(c1)CCC2`, the “% Inhibition” value was 0% and the Z score is reported as 0.

With `CNC(=O)[C@@H](C)CN(C)C(=O)c1cccc(-c2ncn[nH]2)c1`, the “% Inhibition” value is listed as -8% and the Z score came to 1.07.

Consider `O=S(=O)(c1cccc(Cl)c1)N1CCC[C@@H]2C[C@@]21CO`, for which the “% Inhibition” value is listed as -1% and the Z score was found to be 0.13.

For `CO[C@@H]1CCC[C@@H]2CN(C(=O)c3n[nH]c4ccccc34)C[C@@H]21`, the “% Inhibition” value was found to be 3% and the Z score is -0.32.

With `O=C(NCCn1nnc2ccc(F)cc2c1=O)N1CCOCC1`, the “% Inhibition” value was -12% and the Z score is 2.12.

As to `O=C(c1c(Cl)cccc1Cl)N1CCC(Cc2ccccc2)CC1`, the “% Inhibition” value was -5% and the Z score turned out to be 0.57.

For the compound `O=C(c1ccc(-c2ccsc2)cc1)N1CCC[C@H](S(=O)(=O)c2ccc(F)cc2)C1`, the “% Inhibition” value is listed as -10% and the Z score worked out at 1.25.

In the case of `Cc1nccc(NC(=O)C2OCCC2C)c1Cl` (centres undefined), the “% Inhibition” value is recorded as -17% and the Z score is 3.16.

As for `O=c1[nH]nc(CCNc2ccc(Br)cn2)[nH]1`, the “% Inhibition” value is reported as -5% and the Z score is listed as 0.74.

On to `O=C(c1cc(C(F)F)ncn1)N1CCN(c2ncc(F)cn2)CC1`, for which the “% Inhibition” value is given as 21% and the Z score is -2.62.

`Brc1ccc2[nH]cc(Cc3ccccn3)c2c1`: the “% Inhibition” value amounted to 4% and the Z score was -0.61.

In the case of `COc1ccc(S(=O)(=O)N(C)Cc2ccn(C3CCCC3)n2)cc1`, the “% Inhibition” value was -9% and the Z score is given as 1.23.

Turning to `CN(CC1(c2ccccc2)CC1)C(=O)c1cccc2cn[nH]c12`, the “% Inhibition” value worked out at 1% and the Z score is -0.19.

Take `O=C(c1cc(Cl)cc(Cl)c1)N1CCN(c2nccc(-c3ccc4c(c3)OCO4)n2)CC1`: the “% Inhibition” value was -12% and the Z score is given as 1.68.

Consider `CCN(Cc1nn(-c2ccccc2)c2c1CN(Cc1cc(F)ccc1F)CC2)C(=O)c1cccc(Cl)c1`, for which the “% Inhibition” value is -16% and the Z score turned out to be 2.35.

With `CCCc1cc(C(=O)N2CCNC[C@H]2C(=O)N2CCN(C)CC2)ccn1`, the “% Inhibition” value was -12% and the Z score amounted to 2.1.

Turning to `Cc1c(C(=O)NC[C@H]2CCC[C@@H](CO)C2)cnn1C(C)C`, the “% Inhibition” value is given as -5% and the Z score is recorded as 0.7.

On to `CC(C)N1CCN([C@H]2CCOC3(CCN(C(=O)CCC4CCCC4)CC3)C2)CC1`, for which the “% Inhibition” value is -8% and the Z score came to 1.43.

Turning to `CCN(CC)c1ccc(NC(=O)Cn2nc(N3CCCCCC3)c3ccccc3c2=O)c(C)c1`, the “% Inhibition” value is recorded as -15% and the Z score was determined as 2.29.

Regarding `Cc1cc(=O)[nH]c(CNc2ccc(C(F)(F)F)nn2)n1`, the “% Inhibition” value stood at 1% and the Z score is -0.18.

With `COC1CCC(Nc2ncnc(N)c2Cl)C1` (centres undefined), the “% Inhibition” value is reported as -4% and the Z score was determined as 0.78.

As for `Cc1cc(-c2noc(CC3CCC(=O)CC3)n2)cc2nc[nH]c12`, the “% Inhibition” value is given as -10% and the Z score is 1.58.

Consider `COc1ccc(CCNC(=O)c2c[nH]c(=O)n(C)c2=O)cc1OC`, for which the “% Inhibition” value is on record as -1% and the Z score stood at 0.18.

As for `CCCOc1ccc2ccccc2c1CN(C)C(=O)CCc1c(C)nn(CCC#N)c1C`, the “% Inhibition” value is -3% and the Z score was 0.31.

Regarding `Cc1cc(C(=O)N2CCN(C(=O)CC(C)C)[C@@H]3CS(=O)(=O)C[C@@H]32)[nH]n1`, the “% Inhibition” value was found to be 8% and the Z score was -1.07.

As to `O=C(CN1CCOC1=O)N[C@H]1CC(=O)N(Cc2cccc3ccccc23)C1`, the “% Inhibition” value is recorded as -5% and the Z score was determined as 0.81.

Take `Cc1ccccc1N(C(=O)c1cncc(-n2ccnn2)c1)C(C)C`: the “% Inhibition” value is given as -4% and the Z score came to 0.67.

Regarding `COCC1(CNC(=O)Nc2c(F)cccc2OC)CCC1`, the “% Inhibition” value is -4% and the Z score is 0.6.

Regarding `O=C(c1ccc2cccc(F)c2n1)N1CCC[C@@](O)(CO)CC1`, the “% Inhibition” value was -6% and the Z score amounted to 1.14.

The values above are taken from ChEMBL document CHEMBL4888484, “Replenishing the malaria drug discovery pipeline: Screening and hit evaluation of the MMV Hit Generation Library 1 (HGL1) against asexual blood stage Plasmodium falciparum ,using a nano luciferase reporter read-out” (2022).
